Test results: the supplement of paper PMC6206098
± gives the uncertainty stated by the source. Shown are siRNA guide strands that differ only in the seed, positions 2 to 7.

What was measured:
M565 = experiment: cell viability relative to lipid-only control; higher = less toxic; settings: concentration: 10 nM; 96 h; Mus musculus
Experimental: (§1)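 Arrayed screen of 4096 siRNA duplexes, each carrying one of all possible 6mer seeds at guide-strand positions 2-7 in a fixed neutral 19mer scaffold (constant flanks: U at position 1, then ACAUGUAAACCA, plus a 3' AA overhang). The passenger strand is 2'-O-methylated at positions 1-2 so only the guide strand loads into RISC. Duplexes were reverse-transfected at 10 nM with RNAiMAX in triplicate in 384-well plates; viability was read by CellTiter-Glo ATP content 96 h after transfection. Values are % viability normalised to lipid-only wells (HeyA8, H460, M565) or to siNT1 (3LL).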

H460 = experiment: as above; settings: concentration: 10 nM; 96 h; Homo sapiens
Experimental: as §1

HeyA8 = experiment: as above; settings: concentration: 10 nM; 96 h; Homo sapiens
Experimental: as §1

3LL = experiment: cell viability relative to siNT1 control; HeyA8 human ovarian and H460 human lung cancer; M565 mouse liver and 3LL mouse lung cancer; siNT1 is a non-toxic control siRNA; higher = less toxic; settings: concentration: 10 nM; 96 h; Mus musculus
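Wherever cell viability relative to lipid-only control is given: reverse lipid transfection in 384-well plates, in triplicate, of duplexes on a non-toxic 19mer backbone with passenger strand 2′-O-methylated at positions 1 and 2, luminescence viability read-out.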
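Wherever cell viability relative to siNT1 control is given: Luminescence-based viability of cells reverse transfected in 384-well plates with lipid-complexed siRNAs built on a non-toxic 19mer backbone whose passenger strand carries 2′-O-methyl groups at positions 1 and 2, triplicates.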

Sequence | cell viability (M565) [%] | cell viability (H460) [%] | cell viability (HeyA8) [%] | cell viability (3LL) [%]
UAUGGUCACAUGUAAACCAAA | 83.6 ± 23 | 55.1 ± 9.6 | 67.8 ± 5.8 | 97.1 ± 3.4
UAUGGUGACAUGUAAACCAAA | 87 ± 11 | 88 ± 8.9 | 93.9 ± 9.2 | 95 ± 6.9
UAUGGUUACAUGUAAACCAAA | 94.4 ± 22 | 70.5 ± 4.8 | 93.8 ± 7 | 105 ± 23
UAUGUAAACAUGUAAACCAAA | 82.3 ± 7.9 | 63.7 ± 10 | 98.3 ± 2.5 | 106 ± 19
UAUGUACACAUGUAAACCAAA | 63.3 ± 12 | 46.2 ± 6.4 | 54.5 ± 6.7 | 59.8 ± 2.7
UAUGUAGACAUGUAAACCAAA | 74.7 ± 4.6 | 77.3 ± 9.5 | 97.2 ± 8.4 | 112 ± 18
UAUGUAUACAUGUAAACCAAA | 89 ± 12 | 69 ± 5.7 | 86.8 ± 4.5 | 27 ± 5.8
UAUGUCAACAUGUAAACCAAA | 91.1 ± 21 | 64.6 ± 3.6 | 96.1 ± 7.9 | 94.3 ± 11
UAUGUCCACAUGUAAACCAAA | 18.3 ± 4.6 | 42.9 ± 3.1 | 34.1 ± 6.3 | 17.1 ± 2.6
UAUGUCGACAUGUAAACCAAA | 79.2 ± 17 | 54.5 ± 0.79 | 92.8 ± 1.7 | 110 ± 11
UAUGUCUACAUGUAAACCAAA | 37.6 ± 9.3 | 61 ± 4 | 72.1 ± 1.7 | 55.3 ± 5.3
UAUGUGAACAUGUAAACCAAA | 76.2 ± 16 | 61.2 ± 1 | 105 ± 6.4 | 117 ± 12
UAUGUGCACAUGUAAACCAAA | 68.5 ± 7.3 | 46.2 ± 6.5 | 85.6 ± 4 | 35.4 ± 4.8
UAUGUGGACAUGUAAACCAAA | 91.9 ± 12 | 60.6 ± 11 | 49.4 ± 2.6 | 89.9 ± 15
UAUGUGUACAUGUAAACCAAA | 61.8 ± 18 | 54.6 ± 1.5 | 54.4 ± 7.3 | 32.5 ± 9.6
UAUGUUAACAUGUAAACCAAA | 99.6 ± 12 | 82 ± 9.3 | 101 ± 10 | 110 ± 6.9
UAUGUUCACAUGUAAACCAAA | 16.9 ± 2.2 | 59.5 ± 12 | 59.5 ± 5 | 46.6 ± 4.6
UAUGUUGACAUGUAAACCAAA | 71.4 ± 21 | 93.6 ± 5.2 | 100 ± 3.3 | 119 ± 14
UAUGUUUACAUGUAAACCAAA | 91.4 ± 8.8 | 52.1 ± 8.8 | 72.6 ± 3.9 | 64.9 ± 11
UAUUAAAACAUGUAAACCAAA | 95.6 ± 6.9 | 96.6 ± 10 | 97.9 ± 14 | 111 ± 20
UAUUAACACAUGUAAACCAAA | 98.9 ± 11 | 97.6 ± 8.6 | 86 ± 13 | 92.8 ± 17
UAUUAAGACAUGUAAACCAAA | 94.7 ± 20 | 98.3 ± 7.2 | 101 ± 13 | 113 ± 16
